Test results taken from the supplement of paper PMC3334620.
In all, about 33,000 sequences were measured (“E-score (-0.5 to 0.5)”: median about -0.056, highest 2% from about 0.38 on). The list shows a part of the results.

Target: Stb4 (UniProt P50104)
Assay: PBM E-score (8-mer binding enrichment) (E-score (-0.5 to 0.5)); higher = stronger / more preferred TF binding; most listed sequences are background and not binding sites
Details: protein concentration: 200 nM; construct: GST-DNA-binding domain
Summary of the method: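 E-scores (a modified Wilcoxon-Mann-Whitney statistic) were assigned by the Universal PBM Analysis Suite to every ungapped eight-base word pooled with its reverse complement. The input came from universal all-10-mer Agilent arrays made double-stranded by primer extension and probed with GST-tagged yeast transcription factors at about 100-200 nM. Fluorescent anti-GST detected bound protein, and masliner normalised the scans.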

Sequence | PBM E-score
CCGGGTGA | 0.354
AAGTGCGT | -0.176
CTCGGCAG | 0.444
GCATAAAA | -0.00674
AAGCACCT | -0.22
ATATTGGC | 0.0793
CACCTGCG | -0.018
ACGGAGCG | 0.156
AACAGAAT | -0.178
GTATTCAA | 0.00801
ACCGTCCC | 0.2
CTTCTAGA | -0.0983
GAAAGAGA | -0.0451
AACTTCCG | 0.451
ATCCGCTG | 0.203
ATGCAGTA | 0.00511
ACTTTAAT | -0.0201
CAATCCGC | 0.191
CGAGAGAC | 0.0166
CGTCTCAC | -0.118
AATGCAAG | -0.262
CGTAGGTC | -0.11
AACATCAA | -0.0266
GCGAGTGA | -0.0567

Sequence | PBM E-score
ACTAAGAT | -0.0286
TGGTAAAA | 0.0638
ACTTCTCC | 0.0961
ATAGAGGG | -0.113
ATACCTAT | -0.13
CTGGTATA | -0.204
TATTGCGA | 0.0344
ACCGAGTA | 0.321
GGCTTATA | -0.0784
TCCCGCCA | 0.204
CTATTTAC | 0.152
ATTGGGCG | 0.0153
AATCACGC | -0.15
GAGCTGAA | -0.112
ATATATTG | 0.118
CATTCCTC | 0.0887
GACCCTTA | -0.131
AAGATTAA | -0.131
GAAACCTA | 0.00342
AAGCTACA | -0.239
ATGCTTAA | -0.0401
CATCACGC | 0.0419
GCGTTCAC | 0.088
ATGTTGCC | 0.125

Sequence | PBM E-score
CAAGCCTG | -0.271
ACTACAGT | -0.261
TCATGTAA | -0.0942
AAATGCGT | -0.129
AGCGGCCC | 0.0308
CATAGACA | -0.224
ATTTGTAC | 0.00201
GAGTCTGA | -0.146
GGTCTCAA | -0.0398
ATTATTAG | -0.082
CCCAACAA | -0.178
AGCATGCT | -0.233
CGACACAG | 0.0241
CCTAAACC | -0.0812
CTAGATCC | 0.0786
ACGGTGAA | -0.0472
GTCGTCAC | -0.231
GCCTGTGA | -0.349
AGCACTTA | -0.0898
ATTAGGTC | 0.0421
ACCGCCGG | 0.283
GAATTAAA | 0.129
GTTGTTCA | 0.0713
TAGTACTA | -0.304

Sequence | PBM E-score
CTACGTTA | -0.0408
TTCTCAAA | -0.221
CCAGTTTC | -0.0376
CACCCAGG | -0.115
TCCAAGAA | -0.133
AAGCTAAG | -0.0253
CCACGGAG | 0.132
CAAACTTA | -0.096
ATTTTGGG | -0.0867
CACATACA | -0.153
AAGCTTAA | -0.125
GCTCTGCA | -0.171
CACCACGG | -0.0631
AACTACCA | -0.189
GGTCGTCA | -0.113
CTAAACCC | 0.047
AAAGATCG | -0.0762
CGTCTCAG | -0.235
ACCTCTCC | -0.0306
CTTAATAC | -0.176
AACTCGAG | -0.0743
GAAGGGAA | -0.108
